Reference: the supplement of paper PMC11417369
The other results are listed elsewhere or left out.

System: PfAP2-HC AP2 domain (GST-tagged)
Assay: gcPBM binding intensity (ln(normalized median fluorescence intensity)); higher = stronger DNA binding
Outline: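 GST-tagged P. falciparum DNA-binding domains, expressed in E. coli (about 25 μg on average), were applied for 1 h to an Agilent 4 × 180k array of primer-extended double-stranded 36-bp intergenic genomic probes plus negative controls. The binding buffer was 1× PBS with 1% milk, 0.2 mg/ml BSA, 0.5% salmon testes DNA and 0.03% Triton X-100. Bound protein was detected with Alexa488 anti-GST antibody and scanned at 488 nm. Binding intensity is the highest Masliner-normalised natural-log median intensity across replicate spots of either probe orientation.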

Sequence | gcPBM binding intensity (ln)
TTTTTGTATTCTCCGGACTACATTATGTTGTAAATG [CACACA_negctrl_site691] | 9.85
GTAATAAAAAATTAATGTACTTTATATAATATATTA [XGTACX_site5935] | 9.48
TCTAATTTAAAATACACACACATATCTATAATATAT [CACACA_site7029] | 10.1
GTATAAAAATTTAGGAGTACAATATATTTATAATAT [XGTACX_site2127] | 9.67
TATTGTATAAAAATAACATGCAATCCTTATACTGCT [TGCATGCA_site345] | 9.57
TGTACAGTAAATACAACACACATTTGTATAAATATA [CACACA_site4705] | 10.1
TAATATATAAAAAGATGTACTTTTGCAAGTTCCTTT [XGTACX_site8519] | 9.54
GGACTTTATAAAAATGGTACACGCAATTCTATAATC [XGTACX_site6515] | 9.61
GGTACATACAAACACACACACAAAAAAAAAAAAATA [CACACA_site1577] | 10.3
ATATATATATATGTATGTACGTATGTATGTATGAAT [XGTACX_site4857] | 10
CCATATGATATATATTGTACATTATATATTATTTCT [XGTACX_site1697] | 9.68
TATGTTGTTTATTTAGTGCATATTTAAATATTATAA [GTGCAC_site9601] | 9.65
AATGACATTCTTACACGTACAAAATAAAAAATAAAA [XGTACX_site6932] | 9.66
TATATATTATATTCATGTACGTAAAAATTTTGAATA [XGTACX_site6734] | 9.49
ATTTATTTTATAATATATAAATGATATATCTTATTA [CACACA_negctrl_site66] | 9.51
TATATATATATATATTGTACATATTAATATTAGAAA [XGTACX_site8923] | 9.51
ATTACCATATAAAACACACAAACATACATACATACA [CACACA_site3729] | 9.97
TGGAGGTCAGTTCACAGTACCCAGAAACTCTACGAG [XGTACX_site2007] | 9.26
TGAAATAACCCATGTGCATGCACTTCAATAACTGAA [TGCATGCA_site1041] | 9.6
TATAAATTAAAATCAGTGCATATTTTGAAAAACCTC | 9.66
ATATTATTATTAGTTTCACACATTTAATGAAACTAA [CACACA_site5677] | 9.43
TATAAATTATAAATTGCACACATATTTTTATATTTA [CACACA_site8974] | 9.72

Sequence | gcPBM binding intensity (ln)
TTACATGTAAAAGGTACACACATTAGATATACAAAT [CACACA_site6651] | 9.96
AATACTCAAAAGAATCGTACAAACAACACTCCCACG [XGTACX_site7564] | 10.4
TATCATACCTTTTAATGTACACACATTTCTTTTTTG [XGTACX_site1655] | 10.1
TATAACTTTTTTAATACACACAAATATTTATTTATA [CACACA_site7425] | 9.61
TTTTACGTGAGTAATACACACATATAAGTTTATATA [CACACA_site4120] | 9.58
TATACAGATAAATACACACACATATATATATATATA [CACACA_site4178] | 9.86
ATATATATATGTGTGTGTACATATGATTTCGCACTT [XGTACX_site4449] | 10.3
GTTATAATTTAGTCAAGTACATGCGTATGTATATTC [XGTACX_site3763] | 9.78
CACAGAAATATTCTTATACACACTGTTCTTATATTC [CACACA_site288] | 9.82
TAATATATATTATATACACACATATATATATATATA [CACACA_site428] | 9.74
TACCACTTTCGAAGTAGTACATGGCTTTTTTTTTTT [XGTACX_site8379] | 9.61
TGTATGTTAAATACAACACACAAAAAAAAACAAGTT [CACACA_site4324] | 9.9
TATATATATATATGTACACACACACCGATAAATAAA [CACACA_site8041] | 10.2
AAAGAAAGAAAACACACACACATATATATATATCAA [CACACA_site3743] | 10.9
TTTTTGTCTGCATACGCACACACGTGGACCATCTTA [CACACA_site8303] | 10.5
ATTTCCCATACACGTTGTACAATGTAGAGAAAGTAT [XGTACX_site4586] | 9.53
GATATGTGTATAATATGTACATATATATATATATAT [XGTACX_site6531] | 9.96
CTATTTAAAATATGAACACACATTATTTGTTTTAGA [CACACA_site2713] | 9.56
ATATCATTATATAGTTGTACATATTTATTTATTTAT [XGTACX_site8995] | 9.88
AAAAAAAAAAATACTAGTACGTAAAATTATATAAAT [XGTACX_site3019] | 9.85
AATATAGGAATATGCACACATATATACCTACATACA [CACACA_site4939] | 9.95
TAATACTTATATAAAGGTACACAATTTAACCGAATG [XGTACX_site7173] | 9.63

Sequence | gcPBM binding intensity (ln)
GTAAATATTCATATATGTACTTATGATATTTGCTAA [XGTACX_site6828] | 9.57
ACATATATATATATATATTGATTTATTTATTTCCCT [CACACA_negctrl_site659] | 9.62
ATATATATATATAAATGTACAAAAATATATATGTAA [XGTACX_site4531] | 9.92
CTTCCTTAGGAATGTACACACATATAAAATATGTTG [CACACA_site6355] | 9.71
AAGAAAGAGTTCTGTTGTACAAAATATTAATATGTA [XGTACX_site7213] | 9.78
TTTTGGTTAATTCCCCCCATTACATTATGTCATGTC [CACACA_negctrl_site229] | 9.87
TTTCATTTTTTTACATGTACGCAAAAGTGTGTAGTT [XGTACX_site6582] | 9.78
AACAAAATAAAAAGTAATCTTATTTATTAAAATTTT [CACACA_negctrl_site419] | 9.48
TTTATTAAGAAACACACACACACACCCAAAATAAAA [CACACA_site242] | 10.5
CTTTATTATAAGATTACACACATGTGTTCTAATTTA [CACACA_site7479] | 10.1
TAATTAACTTTATATGCATGTTAAAAATGTTATAAG [TGCATGCA_site761] | 9.48
TATAAACAAAACAAAACATGCATAATACTATAAATT [TGCATGCA_site333] | 9.81
TATACGCAGAAACACACACACAAAAAAAAAAAAAAA [CACACA_site427] | 10.5
TATAATAAATCGAACTGTACATATATATATATATAT [XGTACX_site7097] | 9.57
ATTCGGATCTATAAGTGTACACAATCTAGCGAAAAG [XGTACX_site3088] | 9.61
TTTATTCAAATATAATGTACTTTCTACAAATTCAAT [XGTACX_site8119] | 9.43
CATATATAAATATATACACACATATATATATATATA [CACACA_site1365] | 9.66
ATTTTTTTTGCTAAGTGTACACAAATGTTTATTAAT [XGTACX_site7440] | 9.9
GCTAATAATAAAAGCATAATGAACAAACACCCAGTA [CACACA_negctrl_site806] | 10.4
TTATATAACACGGGGAGGACACAAGAAATAAAGAGC [XGTACX_site2148] | 9.89
TTTTTCTGTTTTTATAGCCTTCTCATAATACATAAA [TGCATGCA_negctrl_site355] | 9.42
CAGATAAGATTTTGTGGTACTATTTATTAAATTAGA [XGTACX_site2644] | 9.51

Sequence | gcPBM binding intensity (ln)
ATATTTTCCCTTTATAGGAGCACAAAAATTAAATGT [CACACA_negctrl_site1114] | 9.32
ATTCACAAATATATGGTGCATAATATATATATATAT [GTGCAC_site9674] | 9.63
AACAATTATTGTAATGCATGCACTGAATATAGAAAG [TGCATGCA_site889] | 9.86
AGCGTATAACATATGACACACACACCGACATACACA [CACACA_site8532] | 10.3
ATATATATATGGAAGTGTACTTATATAGCATACTAG [XGTACX_site5130] | 9.77
TACGTATCATAATTTTATTTTATATATATTCACAAA [XGTACX_negctrl_site144] | 9.43
AAATTTTTATAATTATCACACATTGAATTGTGGTCT [CACACA_site4343] | 9.72
AATATGTAAATATGGGTGCTTTAAAATATATTCATT [GTGCAC_site9583] | 9.64
TTCCAATGATAAAATTGTACTTGAAGAAAATTTTTT [XGTACX_site4607] | 9.37
GACATAGTCATATACTGTACTTTATATTATTGTGTA [XGTACX_site6636] | 9.66
TTTTTTTTCATTGGTTGTACAATATTTATAATTCAC [XGTACX_site7036] | 9.71
TTTTTTTTTTTTTTTTGTACTTATAAAAAATTTTTT [XGTACX_site1249] | 8.97
TACAGATATAAACACACACACATATATATATATATA [CACACA_site4846] | 10.2
AATCCCCACTTGTCAAGTACATATATCATGGATGAA [XGTACX_site3486] | 9.5
TATTTATAACAAAGGTTAAATTAAAACTAATCCACA [TGCATGCA_negctrl_site3] | 9.5
GCCAAAATCTAATTTACACACTTATTAAATAATTAC [CACACA_site6251] | 9.72
TATATTAAAAAAGAGGTGCATTCGTAAGAGGTTAAA [GTGCAC_site9720] | 9.74
TCATATTGGCTGTTCTGTACTTATAAGTTTTAAAGA [XGTACX_site5593] | 9.62
ATGTAATATTTACAACGTACAAATTATAAACATATT [XGTACX_site603] | 9.8
TTTGTTAATATAAAAACACACAAAAATAACATAAAA [CACACA_site2619] | 9.85
AAAAAATTCATATATACACACACGCACATATATATA [CACACA_site4226] | 10.2
TATTATATATATGTTGACATATTTGTACACTCCACT [TGCATGCA_negctrl_site200] | 9.83
